Laboratory results: PubChem BioAssay (NCATS)
Where “and” joins values, the source holds several entries; their conditions need not be identical. Equal values may be shown once. Inconclusive means that the source gave no clear call. Such entries were picked first, then a sample of the others. For some assays here: A potency beside an inconclusive call is a rough fit, not a confirmed value. For some assays here: A note “side channel” means that the fit belongs to a control or component signal, not to the main read-out. Calls of active or inactive are those of the source. Unless noted, calls follow the shape of the full dose curve.

Experiments:
[1] = target: Bile acid receptor (Homo sapiens) (UniProt Q96RI1); assay: qHTS assay for small molecule antagonists of farnesoid X receptor signaling (AID 588526); conditions: HEK293T FXR-UAS-bla, beta-lactamase ratio, antagonist mode; activity change, negative = inhibition: at 76.7 µM (top of the series); also: potency is read from the fitted curve at half-maximal effect
In short: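 Concentration-response titrations were fitted to the Hill equation for half-maximal inhibition and maximal response, with data normalised to 50 uM chenodeoxycholic acid and DMSO control wells. Cells: FXR-UAS-bla HEK293T, dialyzed FBS.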

[2] = target: Retinoic acid receptor RXR-alpha (Homo sapiens) (UniProt P19793); assay: qHTS assay for small molecule agonists of retinoid X receptor alpha signaling (AID 588544); conditions: HEK293T RXRa-UAS-bla, beta-lactamase reporter, 18 h; activation: at 76.7 µM (top of the series); also: potency is read from the fitted curve at half-maximal effect;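 as to activation: 0% = DMSO basal wells and 100% = reference agonist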
Sequence of UniProt P19793 (P19793 whole entry, looked up): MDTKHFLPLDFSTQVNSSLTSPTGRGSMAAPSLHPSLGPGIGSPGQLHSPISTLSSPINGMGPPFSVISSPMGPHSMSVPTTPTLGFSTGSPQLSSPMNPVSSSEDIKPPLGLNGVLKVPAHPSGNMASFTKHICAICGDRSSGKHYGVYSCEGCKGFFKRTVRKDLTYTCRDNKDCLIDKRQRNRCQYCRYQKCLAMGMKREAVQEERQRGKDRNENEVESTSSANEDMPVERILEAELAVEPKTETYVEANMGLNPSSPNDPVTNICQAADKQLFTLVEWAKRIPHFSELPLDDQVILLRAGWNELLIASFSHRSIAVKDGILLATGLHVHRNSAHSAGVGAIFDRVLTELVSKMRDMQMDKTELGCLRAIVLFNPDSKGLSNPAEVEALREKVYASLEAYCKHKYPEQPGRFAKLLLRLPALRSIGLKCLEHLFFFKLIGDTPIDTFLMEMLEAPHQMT

[3] = qHTS assay for small molecule agonists of the antioxidant response element (ARE) signaling pathway (AID 651741; active = well fitted activation curve with a large enough effect in the signal ratio; inconclusive = small, poorly fitted or top-dose-only effect, or effect the other way, or a change in a side signal; the % refers to the signal ratio; also: potency is read from the fitted curve at half-maximal effect; as to activation: % of control where 0% means no effect); conditions: HepG2 ARE-bla reporter, beta-lactamase FRET ratio, 16 h; activation: at 96 µM (top of the series) unless noted
In short: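 Reporter: beta-lactamase under ARE, stably in HepG2. Exposure: 16 h, 37 C, compounds delivered in DMSO by pin tool after 5 h cell preincubation. Readout: FRET substrate fluorescence after 2 h at RT.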

[4] = qHTS assay for cell viability of HEK293 cells (AID 743288; active = well fitted curve in the direction sought with a large enough effect; inconclusive = small, poorly fitted or top-dose-only effect, or another doubt; inactive = no such curve, though single readings can be large; an effect the other way counts as inactive or inconclusive; also: % is scaled to controls: 0 for no effect and ±100 for the full control effect; nearly all actives have a fitted effect of over 50% in size); conditions: ATP luminescence (CellTiter-Glo), 18 h; max response: hits give low values
In short: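 Quantitative high-throughput screen: compounds were pinned onto parental HEK293 cells (2,000 per well) after a minimum 5 h settling at 37 C, incubated 18 h at 37 C, and intracellular ATP measured by luciferase luminescence.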

[5] = target: Bile acid receptor (Homo sapiens) (UniProt Q96RI1); assay: qHTS assay for small molecule agonists of farnesoid X receptor signaling (AID 588527); conditions: HEK293T FXR-UAS-bla, beta-lactamase ratio, 16 h; activation: hits give high values; also: potency is read from the fitted curve at half-maximal effect;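 as to activation: 0% = vehicle basal and 100% = reference agonist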
In short: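 FXR-UAS-bla HEK293T cells (10% dialyzed FBS) preincubated 5-7 h at 37 C, then compounds at up to 92 uM for 16 h at 37 C. CCF4 beta-lactamase read-out after 2 h RT. Normalized to chenodeoxycholic acid (100 uM) and DMSO; Hill fit gave EC50 and efficacy.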

[6] = target: Glucocorticoid receptor (Homo sapiens) (UniProt P04150); assay: qHTS assay for small molecule agonists of glucocorticoid receptor signaling (AID 588532; active = well fitted curve in the direction sought with a large enough effect in the signal ratio, with a control signal flat; inconclusive = small, poorly fitted or top-dose-only effect, or a change in a side signal; inactive = no such curve, though single readings can be large or run the other way; the % refers to the signal ratio; also: potency is read from the fitted curve at half-maximal effect); conditions: HeLa MMTV-bla, beta-lactamase ratio, agonist, 18 h; activation: hits give high values, percent of dexamethasone control, DMSO zero
In short: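 Titration series, up to 92 uM, applied to GRE-bla HeLa cells for 18 h at 37 C. Detection by CCF4 FRET substrate after 2 h at RT.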

[7] = target: Peroxisome proliferator-activated receptor delta (Homo sapiens) (UniProt Q03181); assay: qHTS assay for small molecule antagonists of peroxisome proliferator-activated receptor delta signaling (AID 588535; active = well fitted inhibition curve with a large enough effect in the signal ratio, with a control signal flat, not every such curve was filed as active; inconclusive = small, poorly fitted or top-dose-only effect, or effect the other way, or a change in a side signal; inactive = no such curve, though single readings can be large or run the other way; the % refers to the signal ratio; also: potency is read from the fitted curve at half-maximal effect); conditions: HEK293T PPARd-UAS-bla, beta-lactamase FRET ratio, 18 h; activity change, negative = inhibition: at 76.7 µM (top of the series) unless noted
Sequence of UniProt Q03181 (Q03181 whole entry, looked up): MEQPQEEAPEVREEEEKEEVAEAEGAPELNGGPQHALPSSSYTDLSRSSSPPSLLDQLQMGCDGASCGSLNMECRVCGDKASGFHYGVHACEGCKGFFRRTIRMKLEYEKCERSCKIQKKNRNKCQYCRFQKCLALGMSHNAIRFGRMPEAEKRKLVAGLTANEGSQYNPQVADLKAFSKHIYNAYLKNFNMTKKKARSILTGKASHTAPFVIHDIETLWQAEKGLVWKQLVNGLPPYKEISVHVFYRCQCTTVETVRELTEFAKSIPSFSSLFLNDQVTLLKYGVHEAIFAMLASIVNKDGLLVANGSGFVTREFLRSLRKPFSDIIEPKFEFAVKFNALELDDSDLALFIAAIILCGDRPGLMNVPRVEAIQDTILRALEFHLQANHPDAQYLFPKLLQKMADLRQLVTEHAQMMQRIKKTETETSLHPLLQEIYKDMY
In short: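 Inhibition of PPAR-delta response element-driven beta-lactamase expression is measured in HEK293T cells exposed to a compound titration series for 18 hrs at 37 C. Half-maximal inhibition comes from Hill equation fitting.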

[8] = target: Peroxisome proliferator-activated receptor gamma (Homo sapiens) (UniProt P37231); assay: qHTS assay for small molecule antagonists of peroxisome proliferator-activated receptor gamma signaling (AID 588537; active = well fitted inhibition curve with a large enough effect in the signal ratio, with a control signal flat, not every such curve was filed as active; inconclusive = small, poorly fitted or top-dose-only effect, or effect the other way, or a change in a side signal; the % refers to the signal ratio;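 also: reporter cells co-stimulated with 50 nM rosiglitazone agonist during compound treatment; % of control where 0% means no effect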); conditions: HEK293 PPARg-UAS-bla, beta-lactamase ratio, antagonist mode; activity, negative = inhibition: at 76.8 µM (top of the series) unless noted
In short: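 Compounds are tested as concentration series for inhibition of rosiglitazone-driven (50 nM) reporter expression in GeneBLAzer PPAR-gamma-UAS-bla HEK293 cells. After 16 h at 37 C, CCF4 substrate is added for 2 h at room temperature and blue/green fluorescence is measured.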

[9] = target: Vitamin D3 receptor (Homo sapiens) (UniProt P11473); assay: qHTS assay for small molecule antagonists of vitamin D receptor signaling (AID 588541); conditions: HEK293T VDR-UAS-bla, beta-lactamase ratio, antagonist mode; activity change, negative = inhibition: at 76.7 µM (top of the series);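 also: receptor activated by calcitriol during compound treatment; % is scaled to controls: 0 for no effect and ±100 for the full control effect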
Sequence of UniProt P11473 (P11473 whole entry, looked up): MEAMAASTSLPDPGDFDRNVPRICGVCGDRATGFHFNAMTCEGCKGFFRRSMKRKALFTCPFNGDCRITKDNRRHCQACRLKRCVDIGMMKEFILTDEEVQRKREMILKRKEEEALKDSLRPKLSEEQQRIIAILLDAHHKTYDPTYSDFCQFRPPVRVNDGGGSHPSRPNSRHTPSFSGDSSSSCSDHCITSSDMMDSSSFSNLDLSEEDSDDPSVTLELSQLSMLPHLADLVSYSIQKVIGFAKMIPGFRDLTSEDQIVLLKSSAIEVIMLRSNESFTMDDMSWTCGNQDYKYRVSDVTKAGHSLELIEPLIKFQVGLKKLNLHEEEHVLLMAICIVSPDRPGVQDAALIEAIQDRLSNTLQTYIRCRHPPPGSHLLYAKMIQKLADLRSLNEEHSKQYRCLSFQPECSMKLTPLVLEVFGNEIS

[10] = target: Thyroid hormone receptor beta (Homo sapiens) (UniProt P10828); assay: qHTS assay for small molecule antagonists of thyroid hormone receptor beta signaling (AID 588547; active = well fitted inhibition curve with a large enough effect in the signal ratio, with a control signal flat, not every such curve was filed as active; inconclusive = small, poorly fitted or top-dose-only effect, or effect the other way, or a change in a side signal; the % refers to the signal ratio; also: potency is read from the fitted curve at half-maximal effect;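 as to activity change % (negative = inhibition): cells stimulated with 0.4 nM T3 agonist during compound exposure; % is scaled to controls: 0 for no effect and ±100 for the full control effect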); conditions: TR-UAS-bla HEK293, beta-lactamase ratio, antagonist mode, 18 h
Sequence of UniProt P10828 (P10828 whole entry, looked up): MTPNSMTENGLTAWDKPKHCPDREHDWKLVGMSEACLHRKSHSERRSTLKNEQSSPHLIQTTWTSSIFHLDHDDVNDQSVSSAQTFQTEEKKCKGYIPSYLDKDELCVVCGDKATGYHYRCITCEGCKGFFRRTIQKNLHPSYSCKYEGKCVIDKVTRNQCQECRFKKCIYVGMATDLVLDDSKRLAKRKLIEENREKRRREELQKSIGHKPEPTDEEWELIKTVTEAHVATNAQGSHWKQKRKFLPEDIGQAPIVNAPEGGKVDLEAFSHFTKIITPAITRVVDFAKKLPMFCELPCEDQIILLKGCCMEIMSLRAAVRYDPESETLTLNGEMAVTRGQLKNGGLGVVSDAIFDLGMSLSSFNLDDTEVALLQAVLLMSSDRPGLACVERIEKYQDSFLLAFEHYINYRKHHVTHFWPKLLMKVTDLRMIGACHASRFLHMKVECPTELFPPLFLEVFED
In short: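 TR-UAS-bla GripTite HEK293 cells in 2% charcoal/dextran FBS medium were preincubated 4 h at 37 C, given compound (0.59 nM to 92 uM) plus 0.4 nM T3 (final) for 18 h, then CCF4 for 2 h at RT; Hill fit gave IC50.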

[11] = target: Glucocorticoid receptor (Homo sapiens) (UniProt P04150); assay: qHTS assay for small molecule antagonists of glucocorticoid receptor signaling (AID 588533; active = well fitted inhibition curve with a large enough effect in the signal ratio, with a control signal flat, not every such curve was filed as active; inconclusive = small, poorly fitted or top-dose-only effect, or effect the other way, or a change in a side signal; the % refers to the signal ratio;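 also: cells stimulated with 2 nM dexamethasone as agonist; % is scaled to controls: 0 for no effect and ±100 for the full control effect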); conditions: HeLa MMTV-bla, GRE beta-lactamase ratio, antagonist mode, 18 h; activity change, negative = inhibition: at 76.8 µM (top of the series)
[12] = target: Retinoic acid receptor RXR-alpha (Homo sapiens) (UniProt P19793); assay: qHTS assay for small molecule antagonists of retinoid X receptor alpha signaling (AID 588546; active = well fitted inhibition curve with a large enough effect in the signal ratio, with a control signal flat, not every such curve was filed as active; inconclusive = small, poorly fitted or top-dose-only effect, or effect the other way, or a change in a side signal; inactive = no such curve, though single readings can be large or run the other way; the % refers to the signal ratio; also: potency is read from the fitted curve at half-maximal effect); conditions: HEK293T RXRa-UAS-bla, beta-lactamase ratio, antagonist mode
In short: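 Beta-lactamase reporter inhibition, read as CCF4 fluorescence ratio (ex 405, em 460/530 nm) after 2 h at RT. HEK293T UAS-bla cells, 2500/well, were stimulated with 9-cis-RA at 500 or 100 nM final alongside test compound for 18 h at 37 C.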

[13] = qHTS assay for small molecule agonists of the antioxidant response element (ARE) signaling pathway measured by Nrf2-dependant transcriptional activity (AID 720636; active = well fitted curve in the direction sought with a large enough effect in the repeat runs; inconclusive = weak or mixed curves; inactive = no such curve, though single readings can be large; an effect the other way counts as inactive or inconclusive;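 also: HepG2 cells with an ARE-driven luciferase reporter; % of control where 0% means no effect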)
In short: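 First, ARE-luc HepG2 cells attached for 6 hr at 37 C in 1% dialyzed FBS medium. Next, compound or DMSO was added and incubated 16 hr. Finally, ONE-Glo reagent was added and luminescence measured after 30 min.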

[14] = qHTS assay for small molecule agonists of the antioxidant response element (ARE) signaling pathway measured by Nrf2-dependant transcriptional activity - cell viability counter screen (AID 720653; active = well fitted curve in the direction sought with a large enough effect in the repeat runs; inconclusive = weak or mixed curves; inactive = no such curve, though single readings can be large; an effect the other way counts as inactive or inconclusive; also: % is scaled to controls: 0 for no effect and ±100 for the full control effect); conditions: ARE-bla HepG2 viability, CellTiter-Glo ATP luminescence, 16 h; max response: hits give low values
In short: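 ARE-bla HepG2 cells (2,000/well) rested 5 hrs at 37C/5% CO2, then exposed to compounds in DMSO for 16 hrs. Viability was read in the same wells as intracellular ATP by luminescence, 30 min at room temperature after reagent addition.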

[15] = target: Peroxisome proliferator-activated receptor delta (Homo sapiens) (UniProt Q03181); assay: qHTS assay for small molecule agonists of peroxisome proliferator-activated receptor delta signaling (AID 588534); conditions: HEK293T PPARdelta-UAS-bla, beta-lactamase ratio, 18 h; activation: at 76.7 µM (top of the series) unless noted; also: potency is read from the fitted curve at half-maximal effect
In short: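 Agonist-mode beta-lactamase reporter readout (CCF4 dye, 2 h at RT) after 18 h at 37 °C exposure to a titration; Hill-equation fitting gave EC50 and maximal response.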

[16] = target: Peroxisome proliferator-activated receptor gamma (Homo sapiens) (UniProt P37231); assay: qHTS assay for small molecule agonists of peroxisome proliferator-activated receptor gamma signaling (AID 588536; active = well fitted curve in the direction sought with a large enough effect in the signal ratio, with a control signal flat, not every such curve was filed as active; inconclusive = small, poorly fitted or top-dose-only effect, or effect the other way, or a change in a side signal; inactive = no such curve, though single readings can be large or run the other way; the % refers to the signal ratio;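 also: 0% = DMSO basal wells and 100% = rosiglitazone at 2 µM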); conditions: HEK293 PPARg-UAS-bla, beta-lactamase ratio, 16 h; activation: at 76.7 µM (top of the series), percent of rosiglitazone response, DMSO as zero
In short: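 Cells were plated and held 6–6.5 h at 37 C, then compounds were added as a titration series. After a further 16 h, CCF4 dye was loaded for 2 h at room temperature and emission at 460/530 nm recorded.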

[17] = target: Cytochrome P450 3A4 (Homo sapiens) (UniProt P08684); assay: qHTS Assay for Inhibitors and Substrates of Cytochrome P450 3A4 (AID 884; active = well fitted curve in the direction sought with a large enough effect; inconclusive = small, poorly fitted or top-dose-only effect, or another doubt; inactive = no such curve, though single readings can be large; an effect the other way counts as inactive or inconclusive; also: % is scaled to controls: 0 for no effect and ±100 for the full control effect; nearly all actives have a fitted effect of over 50% in size); conditions: recombinant CYP3A4, Luciferin-PPXE luminescence; activity change, negative = inhibition: at 57.1 µM (top of the series) unless noted
Sequence of UniProt P08684 (P08684 whole entry, looked up): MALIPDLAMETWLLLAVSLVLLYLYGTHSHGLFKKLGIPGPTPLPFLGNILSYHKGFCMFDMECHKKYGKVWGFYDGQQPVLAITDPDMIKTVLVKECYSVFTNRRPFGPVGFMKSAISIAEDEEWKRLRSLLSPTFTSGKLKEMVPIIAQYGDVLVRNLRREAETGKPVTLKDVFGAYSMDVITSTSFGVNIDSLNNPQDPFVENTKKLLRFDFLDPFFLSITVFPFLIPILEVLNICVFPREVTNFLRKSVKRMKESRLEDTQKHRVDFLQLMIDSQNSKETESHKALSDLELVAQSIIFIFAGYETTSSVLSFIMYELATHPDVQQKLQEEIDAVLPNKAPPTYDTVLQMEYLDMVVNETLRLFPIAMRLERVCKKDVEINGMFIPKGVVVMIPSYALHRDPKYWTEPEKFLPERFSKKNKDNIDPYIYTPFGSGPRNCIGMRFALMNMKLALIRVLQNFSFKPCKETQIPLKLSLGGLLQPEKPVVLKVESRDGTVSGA
In short: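 Luminescent readout of luciferin produced by CYP3A4 (20 nM) dealkylation of Luciferin-PPXE, 25 uM (its KM). NADPH-driven reaction ran 60 min at RT after 10 min compound preincubation; data scaled to 57 uM ketoconazole as 100% inhibition.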

[18] = MultiTox-Fluor Cytotoxicity Assay - LYMP1-001 - Live Cells (AID 947; active = well fitted curve in the direction sought with a large enough effect; inconclusive = small, poorly fitted or top-dose-only effect, or another doubt; inactive = no such curve, though single readings can be large; an effect the other way counts as inactive or inconclusive; also: potency is read from the fitted curve at half-maximal effect)
[19] = MultiTox-Fluor Cytotoxicity Assay - LYMP1-003 - Dead Cells (AID 961; active = well fitted curve in the direction sought with a large enough effect; inconclusive = small, poorly fitted or top-dose-only effect, or another doubt; inactive = no such curve, though single readings can be large; an effect the other way counts as inactive or inconclusive;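 also: 0% = DMSO and 100% = tetraoctylammonium bromide; nearly all actives have a fitted effect of over 70% in size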)
In short: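 LYMP1-003 human lymphoblastoid cells (2500/well) exposed to compound 16 h at 37 C in complete medium; dead-cell protease read with bis-AAF-R110 fluorescence (Ex/Em 485/520) after 60 min at room temperature. Normalized to DMSO and 15 uM tetraoctylammonium bromide; AC50 from Hill fit.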

[20] = Cell Viability - LYMP2-019 (AID 973; active = well fitted curve in the direction sought with a large enough effect; inconclusive = small, poorly fitted or top-dose-only effect, or another doubt; inactive = no such curve, though single readings can be large; an effect the other way counts as inactive or inconclusive;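 also: 0% = DMSO alone and full effect = 92 µM tetraoctylammonium bromide; nearly all actives have a fitted effect of over 55% in size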)
In short: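 AC50 values come from Hill-equation fits of luminescent intracellular ATP (CellTiter-Glo, 30 min, room temperature) following 24 h compound exposure at 37 C. Cells: LYMP2-019 lymphoblastoid line, 2500 per well, in complete culture medium.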

[21] = target: Tumor necrosis factor (Homo sapiens) (UniProt P01375); assay: qHTS assay to identify small molecules that stimulate Tumor Necrosis Factor-alpha (TNF-alpha) secretion (AID 651757; active = well fitted curve in the direction sought with a large enough effect in the signal ratio; inconclusive = small, poorly fitted or top-dose-only effect, or a change in a side signal; inactive = no such curve, though single readings can be large or run the other way; the % refers to the signal ratio; also: 0% is about no effect); conditions: Human cells, HTRF 665/615 ratio; activation (TNF-alpha secretion): at 92.2 µM (top of the series)
Sequence of UniProt P01375 (P01375 whole entry, looked up): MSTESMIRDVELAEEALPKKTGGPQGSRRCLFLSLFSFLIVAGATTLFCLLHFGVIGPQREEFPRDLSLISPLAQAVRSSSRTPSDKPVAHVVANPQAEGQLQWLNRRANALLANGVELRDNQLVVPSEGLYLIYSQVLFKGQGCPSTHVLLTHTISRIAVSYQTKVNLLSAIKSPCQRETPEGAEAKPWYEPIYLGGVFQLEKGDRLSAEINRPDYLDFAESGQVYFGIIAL
In short: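 Secreted TNF-alpha quantified by TR-FRET sandwich of two labeled anti-TNF-alpha antibodies, incubated 3 hr at room temperature. Preceded by 17 hr, 37 C compound treatment of THP-1 cells at 3000 cells/well.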

[22] = qHTS assay to identify small molecules that stimulate interleukin-8 (IL-8) secretion (AID 651758; active = well fitted activation curve with a large enough effect in the signal ratio; inconclusive = small, poorly fitted or top-dose-only effect, or effect the other way, or a change in a side signal; the % refers to the signal ratio; also: 0% is about no effect); conditions: HTRF ratio (665/615); activation: at 92.2 µM (top of the series)
In short: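 Quantitative HTS in THP-1 monocytic cells at 2000 cells per well, with 16 hrs compound incubation at 37 C. IL-8 in the medium was then quantified by HTRF immunoassay, read after 1-3 hrs at room temperature.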
Tags tell the direction and shape of the fitted curve or compound fluorescence and quenching.

In the case of CC(=O)c1c(C)c([N+](=O)[O-])c(C(C)(C)C)c([N+](=O)[O-])c1C, the Potency [1] is reported as inconclusive: 39.8 µM [cytotoxic, side channel, partial curve, poor fit], the Potency [2] is reported as active: 28.2 µM and the activation [3] is reported as inconclusive: 18.7%. The max response [4] was inactive: -8.24%.

With O=C1CCC(C2CCCCC2)CC1 the Potency [5] was inconclusive: 0.001 µM [side channel, falling, full curve, poor fit], the Potency [6] was inconclusive: 0.005 µM [side channel, falling, full curve, poor fit] and the Potency [7] was inconclusive: 50.1 µM [activator, partial curve, poor fit]. The activity, negative = inhibition [8] was inconclusive: 1.58%, the Potency [9] was “inactive” and the activity change % (negative = inhibition) [10] was inconclusive: -1.32%. For the same compound, the Potency [3] was inconclusive: 68.6 µM [activator, single point].

For CC(=O)[C@H]1[C@H](C#N)C[C@H]2[C@@H]3CC=C4C[C@@H](O)CC[C@]4(C)[C@H]3CC[C@@]21C, the activity change, negative = inhibition [1] was inconclusive: -34.3%, the activation [5] was inactive: -2.16% and inactive: -0.929% and the activity change, negative = inhibition [11] was inconclusive: -35.3% and inconclusive: -43.3%. For the same compound, the max response [12] was inconclusive: -51.1% and the Potency [13] was “inactive”.

In the case of CCNc1nc(NC(C)CC)nc(OC)n1 (stereo unspecified), the activity change, negative = inhibition [1] is reported as inconclusive: 30.6%, the activity change, negative = inhibition [7] is reported as inconclusive: 15.1% and the Potency [2] is reported as “inactive”. The Potency [10] was inconclusive: 0.355 µM [side channel, falling, full curve, poor fit], the Potency [3] was “inactive” and the max response [14] was inactive: 16.1%.

For CC(C)(C)C(O)/C(=C\c1ccc(Cl)cc1)n1cncn1 (stereo unspecified), the Potency [1] was “inactive”, the Potency [8] was “inactive” and the activity change % (negative = inhibition) [10] was inconclusive: 0.0274%.

With CCCCCCCCCCCC[N+](C)(C)C the activity change, negative = inhibition [1] was inconclusive: -28.2%, the Potency [15] was inconclusive: 31.6 µM [side channel, rising, partial curve, poor fit] and the activation [16] was inconclusive: -17.5%. The Potency [8] was “inactive”, the activation [2] was inconclusive: -65.9% and the Potency [12] was active: 17.8 µM. The Potency [10] was inconclusive: 50.1 µM [side channel, rising, single point].

For C=C(C)C(=O)OCCCCCCCCCC, the Potency [17] was “inactive”, the Potency [18] was inconclusive: 39.8 µM [cytotoxic, partial curve] and the Potency [19] was “inactive”. The Potency [20] was “inactive”, the Potency [1] was “inactive” and the activity change % (negative = inhibition) [10] was inactive: 12.3%. The activation [3] was inconclusive: 7.5%, the Potency [21] was “inactive” and the Potency [22] was “inactive”.
